Laboratory results published in the RNAGym collection of RNA variant scans (doi:10.1093/nar/gkz1192).
The source gives no read counts; variants with many changes may rest on few reads.

B1: CPEB3 Ribozyme (parent)
chain: UAACAGGGGGCCACAGCAGAAGCGUUCACGUCGCAGCCCCUGUCAGAUUCUGGUGAAUCUGCGAAUUCUGCUGUAUAUCUC

Variants of: B1
Experiment: self-cleavage, relative activity (ratio to wild type); higher = more cleavage; in vitro, sequencing
How it was run: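 Relative activity compares each variant's cleaved/total read fraction with that of the unmutated ribozyme. To get these fractions, barcoded CPEB3 ribozyme libraries from rounds of error-prone PCR were transcribed with T7 RNA polymerase for 5 hours at 37°C and then given 15 min of DNase I treatment before EDTA was added. The RNAs were reverse transcribed with template switching and sequenced on Illumina, and DNA sequencing linked barcodes to variants. A minimum of 5 reads applied, and three batches were averaged.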

**Q.** Which self-cleavage does the source give for C12U A15C A57G U78C here?
**A.** 1.21

**Q.** With C12U A15C U26A U31A A65U U66C as the variant, how does the self-cleavage read?
**A.** 0.13

**Q.** With C12U A15G A21U U58C as the variant, how does the self-cleavage read?
**A.** 0.04

**Q.** For C12U A15G A28C C37U U74C U78C, which self-cleavage is on record?
**A.** 0.6

**Q.** Which self-cleavage does the source give for C12U A15G A64G here?
**A.** 0.74

**Q.** For C12U A15G G19A A28U, which self-cleavage is on record?
**A.** 0.07

**Q.** For C12U A15G U25C U54C U60C, which self-cleavage is on record?
**A.** 0.08

**Q.** With C12U A15G U31C U43C C59U A64U U69C as the variant, how does the self-cleavage read?
**A.** 0.04

**Q.** For C12U A15G U41C, which self-cleavage is on record?
**A.** 0.77

**Q.** Which self-cleavage does the source give for C12U A15U G36A U51C U54C here?
**A.** 0.1

**Q.** Which self-cleavage does the source give for C12U A15U U26A C29G U54C A56U U58C here?
**A.** 0.07

**Q.** For C12U A18C A45G U72A, which self-cleavage is on record?
**A.** 0.24

**Q.** With C12U A18G A47U U49A A64G as the variant, how does the self-cleavage read?
**A.** 0.18

**Q.** Which self-cleavage does the source give for C12U A18G A56G A75G here?
**A.** 0.84

**Q.** With C12U A18G A64G as the variant, how does the self-cleavage read?
**A.** 0.7

**Q.** Which self-cleavage does the source give for C12U A18G C34U U41C U54A here?
**A.** 0.04

**Q.** Which self-cleavage does the source give for C12U A18G U31C U41A A65G here?
**A.** 0.03

**Q.** With C12U A18G U48C A64G U72C as the variant, how does the self-cleavage read?
**A.** 0.07

**Q.** For C12U A18G U58G, which self-cleavage is on record?
**A.** 0.34

**Q.** Which self-cleavage does the source give for C12U A18G U60G U80A here?
**A.** 0.25

**Q.** With C12U A18G U76C as the variant, how does the self-cleavage read?
**A.** 1.22

**Q.** For C12U A18U U25C U54C U69C U76A, which self-cleavage is on record?
**A.** 0.06

**Q.** For C12U A18U U43A A45G A57G, which self-cleavage is on record?
**A.** 0.23

**Q.** With C12U A18U U43A A57U as the variant, how does the self-cleavage read?
**A.** 0.33

**Q.** For C12U A18U U74C U78C, which self-cleavage is on record?
**A.** 1.08

**Q.** Which self-cleavage does the source give for C12U A20G A28G here?
**A.** 0.76

**Q.** With C12U A20G A35U A47G U48G U54C as the variant, how does the self-cleavage read?
**A.** 0.05

**Q.** Which self-cleavage does the source give for C12U A20G U31C A65U C68A here?
**A.** 0.13

**Q.** For C12U A20G U54C, which self-cleavage is on record?
**A.** 1.38

**Q.** With C12U A20U U25C as the variant, how does the self-cleavage read?
**A.** 0.1

**Q.** For C12U A21G A35C U69A, which self-cleavage is on record?
**A.** 0.1

**Q.** With C12U A21G A56G A64G as the variant, how does the self-cleavage read?
**A.** 0.45

**Q.** With C12U A21G U25C C40A U69C C79U as the variant, how does the self-cleavage read?
**A.** 0.07

**Q.** With C12U A21U U25C A28U A35U U72C as the variant, how does the self-cleavage read?
**A.** 0.06

**Q.** With C12U A28G A64G as the variant, how does the self-cleavage read?
**A.** 0.84

**Q.** With C12U A28G C29A U76A as the variant, how does the self-cleavage read?
**A.** 0.35

**Q.** With C12U A28G U31A U43A A64G as the variant, how does the self-cleavage read?
**A.** 0.35

**Q.** With C12U A28G U41C U67C as the variant, how does the self-cleavage read?
**A.** 0.13

**Q.** With C12U A28G U43C as the variant, how does the self-cleavage read?
**A.** 0.28

**Q.** With C12U A28G U48A U49C U60C as the variant, how does the self-cleavage read?
**A.** 0.17

**Q.** For C12U A28U A35G U43A A56G U69C U78C, which self-cleavage is on record?
**A.** 0.47

**Q.** With C12U A28U G46A U58C as the variant, how does the self-cleavage read?
**A.** 0.09

**Q.** For C12U A28U U41C, which self-cleavage is on record?
**A.** 1.05

**Q.** For C12U A35C U58C U80C, which self-cleavage is on record?
**A.** 0.32

**Q.** Which self-cleavage does the source give for C12U A35G U43A A47U U58A A64G here?
**A.** 0.87

**Q.** Which self-cleavage does the source give for C12U A35U A47G G53A U58C A75G here?
**A.** 1.26

**Q.** With C12U A35U C40U G52A A56U as the variant, how does the self-cleavage read?
**A.** 0.21

**Q.** With C12U A35U U76C as the variant, how does the self-cleavage read?
**A.** 1.16

**Q.** Which self-cleavage does the source give for C12U A45G A56U U78C here?
**A.** 0.58

**Q.** With C12U A45G U60C A64U U69A as the variant, how does the self-cleavage read?
**A.** 0.17

**Q.** For C12U A45U A77U, which self-cleavage is on record?
**A.** 1.01

**Q.** With C12U A45U U60A U80A as the variant, how does the self-cleavage read?
**A.** 1.26

**Q.** For C12U A47G A57G U60G A77G, which self-cleavage is on record?
**A.** 0.18

**Q.** Which self-cleavage does the source give for C12U A47G U48C U54C A65G here?
**A.** 0.09

**Q.** Which self-cleavage does the source give for C12U A47G U49C A77U here?
**A.** 0.59

**Q.** With C12U A56G U72A as the variant, how does the self-cleavage read?
**A.** 0.94

**Q.** With C12U A64G U72C U80C as the variant, how does the self-cleavage read?
**A.** 1.26

**Q.** With C12U A64U U78G as the variant, how does the self-cleavage read?
**A.** 0.65

**Q.** Which self-cleavage does the source give for C12U C14U A15U C32U U43C A65G U67C here?
**A.** 0.06

**Q.** For C12U C14U A21G, which self-cleavage is on record?
**A.** 0.69

**Q.** With C12U C17U A28G C34A A35U A65G as the variant, how does the self-cleavage read?
**A.** 0.07

**Q.** With C12U C17U U41C A45U G70A as the variant, how does the self-cleavage read?
**A.** 1.2

**Q.** For C12U C23G U26C C29U A45G U51C U78A, which self-cleavage is on record?
**A.** 0.04

**Q.** Which self-cleavage does the source give for C12U C23U U41C U72C here?
**A.** 0.46

**Q.** With C12U C27U U51C U80C as the variant, how does the self-cleavage read?
**A.** 0.12

**Q.** With C12U C29U A45U U78C as the variant, how does the self-cleavage read?
**A.** 0.14

**Q.** For C12U C32A U43A U66C, which self-cleavage is on record?
**A.** 0.06

**Q.** For C12U C32U A56G, which self-cleavage is on record?
**A.** 0.08

**Q.** Which self-cleavage does the source give for C12U C40G U43C U54A U76C here?
**A.** 0.19

**Q.** For C12U C44U A45G, which self-cleavage is on record?
**A.** 0.91

**Q.** For C12U C59A U69A U74C, which self-cleavage is on record?
**A.** 0.43

**Q.** With C12U G16C A28U U54A as the variant, how does the self-cleavage read?
**A.** 0.22

**Q.** Which self-cleavage does the source give for C12U G19A A20G A45G A57G G73U here?
**A.** 0.63

**Q.** Which self-cleavage does the source give for C12U G19C A21G U72A here?
**A.** 0.06

**Q.** With C12U G19U C62U as the variant, how does the self-cleavage read?
**A.** 0.34

**Q.** With C12U G22C C29U A35G as the variant, how does the self-cleavage read?
**A.** 0.07

**Q.** For C12U G24A U26C A28G C38U U69C U74G, which self-cleavage is on record?
**A.** 0.06

**Q.** For C12U G24A U41G U72C U78C, which self-cleavage is on record?
**A.** 0.08

**Q.** Which self-cleavage does the source give for C12U G24C U26C A28G A35G U60A here?
**A.** 0.05

**Q.** Which self-cleavage does the source give for C12U G30A C38A A65U here?
**A.** 0.06

**Q.** With C12U G30A U41C U69C as the variant, how does the self-cleavage read?
**A.** 0.13

**Q.** Which self-cleavage does the source give for C12U G33A U69G G73A here?
**A.** 0.1

**Q.** For C12U G36C U78C U80A, which self-cleavage is on record?
**A.** 0.16
